Measured values: the RNAGym collection of RNA variant scans (doi:10.7554/elife.90254)
The source gives no read counts; variants with many changes may rest on few reads.

B1: LINE1-mini (parent)
chain: GGCAGAGCUCAACACAGCGUGGCAAAGUGGCUGUGGCUAGACUGCC

Variants of: B1
Experiment: self-cleavage, relative activity (ratio to wild type); higher = more cleavage; in vitro, sequencing; the parent is a self-cleaving ribozyme

Variant | self-cleavage
A6C U28C G30A | 0.2
C8A C15U C18G G33A A39C | 0.06
A16U G17U A39G | 0.05
G17C G19C C37U G40C G44C | 0
U9A G30A C31A G35A C37A | 0.11
G2U C37A C46G | 0.06
C15G A24C C46U | 0.02
G7C C13A G35C G44U | 0.11
A4C A11C A12U G21U A39C | 0.02
A11G A14U G35C G44C | 0.02
G2C A16U G40U | 0.03
C13U G17U A25G G29C | 0.13
C23A A26U G30C C37A | 0.14
G2C G21C G29C U43A | 0.01
C3G C8U A12G | 0.05
C10A C18U U32G C42U | 0.01
G1A A6U G22C G27A | 1.2
G5C C15U G19C G36C | 0.08
A14U U20C G29U G35C C45U | 0.05
G7A A11U G29C | 0.02
G30C A41U U43A | 0.04
G21A G30A G33U | 0.05
U20C C37U A39C G40U | 0.01
C10U U38G C45U | 0.02

Variant | self-cleavage
G7A C18U C23U | 0.19
G1A G17C G19C | 0.24
G22C A24U C46A | 0.13
G21A A25G G33C | 0.09
C23U G35U C45A | 0.14
G2C C10U U20G G22A A24G | 0.01
G33A U34C C45U | 0.05
C3G U32G G33C | 0.04
A12U C15G U20A U32G G36A C37U | 0.01
G5C C18G A25G C37A | 0.07
A11C C37A A41C | 0.01
G5U C31A G35A | 0.03
A6U U32A C37A | 0.02
G35A G36U C37U | 0.04
G7C C23A G44U C45A | 0.09
C3U G27A G44U | 0.37
G5A G19C U34G | 0.04
G5A A26G C31A A41G | 0.02
C8G A12G U34A A39U | 0.01
A6C C10A U20G | 0
A6U C10G G30A | 0.04
A6C C10A C18A G22U | 0.02
U28A U32A G35C C42A | 0.02
A12G G17U G33A | 0.03

Variant | self-cleavage
G21U G33C G36U | 0.04
A12C U20A C45A | 0.02
G2A C18G A26U C46U | 0.03
A4G C10A C15A G27A | 0.08
G2C U20G G22C G36C G44C | 0.02
C18A G19U A26C | 0.01
U9G C10U C23A G40C C46U | 0
G1A G2C A6C A11U G30U U34G A41U | 0
G21C C37U U38G | 0.01
A6C G17A A24U G40A | 0.04
C23U U34C C45G | 0.07
A26U G27A C31G | 0.07
A11G G21U G27C G40C | 0.01
G29U U34C G40C | 0.02
A6G A24U A39G | 0.03
C15A C18U G35C | 0.02
A25G A26C G27C | 0.12
G5A A12U C23A U43C | 0.01
G21U A26G G40U | 0.09
A26C C31G C46U | 0.04
G21U C37U U38G | 0.02
A41C U43G C46G | 0.02
G1A C3U C10A G17C G21C G29U G35C | 0.04
C3A A11G A24C | 0.02

Variant | self-cleavage
C3A A6U C37G C45U | 0.14
G5A C31G G33C | 0.17
G1A C15G C18U G33A C46U | 0.04
A4G A12U G27U | 0.27
C23G A25G A26U G33C | 0.02
G2U G17A G22U A24U G27C U34A | 0.09
C13U G17A C37G | 0.02
G2A C3A U32A C42G C46G | 0.73
G2C U28C G33U A39C | 0
U20A U34G U38C | 0.22
C18G G21C A25G C31A G44U | 0.03
G5C G7A C23A G40A | 0.15
C8U U9A G17U A26G G30A C46A | 0.05
G2U G7C A16C G17A G30A C37A | 0.09
A6C G7A G40C | 0.14
G27U G30C G40A | 0.06
C42U U43A C45U | 0.01
U9G G17U A24C U28G | 0.08
G2U C10A C31G G36U | 0.01
G5A A24U G36A | 0.15
G30A U34G A39G | 0.09
U32C C37U C45U | 0.07
A12C A24U A39C | 0.02
A4U G5A G19A A39C C45U | 0.38

Variant | self-cleavage
A25C U28A G30A U34C | 0.05
G5C A12U A26C | 0.05
G5C A11U G33U | 0.07
A11G A16C G21A G33U C37A G40C | 0.01
G5A C10A C13U G17C U28A G30A U32A | 0.01
G7A A12C G30U C31A | 0.03
G7C A16C C31A | 0.04
G5A C13U C37G C42A | 0.04
A11C A14C A24U G27U | 0.01
C10U G30C A39C | 0.05
G1C G17C A26G G30A G35U | 0.03
G7C A11U G27U U28C U38A | 0
A4U C18A G21U G35U | 0.07
A14G C15G C18U U34G A41G C42G | 0.03
C10G C23U G36U A41G U43A | 0
A4U G5U A16G | 0.03
G1C U20A C23G U32A | 0.01
C8G C23G C46U | 0.04
G2U A14U U38C A39C | 0.01
A6C C8A G19A G22U A26U C45G | 0.48
C10A G17U C46G | 0.02
G5U G29A U34A | 0.09
G2A G33C G35A U38C | 0.03
G19A C31A C45U | 0.56

Variant | self-cleavage
G2A U9C G36C | 0.05
G21A G30U C31U | 0.02
G21U C23G U38G U43G | 0
G21A C31G G36C U43C C46G | 0.02
G22C A24U G35A C46A | 0.02
C3U C10U G22A G30A | 0.22
U28C A41U C45G | 0.04
G7A G19A C23A A24U A25G | 0.22
A4G U9G G35C C37A | 0.01
C15A G19C G29A C42U G44U | 0.07
C13A C23G G36C | 0.02
C3G A11U G22C U43A | 0.04
U9A C15A C46A | 0.05
A16C G29U C37U | 1.46
G2C C3A A14G G17U G21A C23A | 0.1
A16U G22U C42G | 0.01
G5C C31G C46A | 0.09
A6U C8A A16G | 0.09
C3A U32G U34A C42G | 0.14
C8U G21A A26U G27U C37A | 0.14
C3U U9A G33U | 0.26
C8U G22A A41U U43C | 0.25
U34A A39U C45G | 0.05
C8A C15G C18A | 0.12

Variant | self-cleavage
G1C G5U C18U G19A A26C | 0.02
A11U G21U C45G | 0.02
G29A C31A C37U | 0.13
G17U U43A G44U | 0.01
C8A C10U G19U A24U U38A A39G | 0.01
C10A A25U A26U | 0.03
C3A C31A C46U | 0.08
A6U G22C G36U C45A C46U | 0.73
G1U C15U G27C U28C G29A | 0.09
G7A A12C C31U C45U | 0.01
U20G A25C U28C C45A | 0.16
G7A A12U C15G G22A G36A | 0.17
G1C U20G A26U G36A C37U | 0.01
A12C C23U U32C U43G | 0
G5C C23G G27A C42A | 0.06
A12U A25C G30A U38A G40A | 0.05
A4C G7C A16U A25C U28G | 0.05
G7U U20A G29U | 0.07
G27A C31A C46A | 0.46
G7A A14C G17A C42G | 0.02
G7C C15A A39U | 0.01
C8G A12U C13A G21U G35U | 0.4
G5A C31G U32C G35U U43G | 0
